Data taken from PubChem BioAssay AID360 (National Center for Advancing Translational Sciences (NCATS), 2006).
In all, about 48,000 compounds went through this assay and about 550 (1.1%) were called active. Roughly 4% stayed inconclusive and do not appear here. No stated cut-off is given here; in the data, active means potency below about 15 µM; inconclusive means mostly about 16 µM to 33 µM; inactive means weaker than that. The list shows a part of the results.
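Further: the screen sought inhibitors.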
Potency means the concentration at half of the fitted maximal effect.

These compounds were tested against Lysosomal acid glucosylceramidase (Homo sapiens) (UniProt P04062) (assay: Glucocerebrosidase). Conditions: purified enzyme, resorufin glucoside fluorescence (screen aimed at inhibitors), 20 min.
Chain of UniProt P04062 (P04062 whole entry, looked up): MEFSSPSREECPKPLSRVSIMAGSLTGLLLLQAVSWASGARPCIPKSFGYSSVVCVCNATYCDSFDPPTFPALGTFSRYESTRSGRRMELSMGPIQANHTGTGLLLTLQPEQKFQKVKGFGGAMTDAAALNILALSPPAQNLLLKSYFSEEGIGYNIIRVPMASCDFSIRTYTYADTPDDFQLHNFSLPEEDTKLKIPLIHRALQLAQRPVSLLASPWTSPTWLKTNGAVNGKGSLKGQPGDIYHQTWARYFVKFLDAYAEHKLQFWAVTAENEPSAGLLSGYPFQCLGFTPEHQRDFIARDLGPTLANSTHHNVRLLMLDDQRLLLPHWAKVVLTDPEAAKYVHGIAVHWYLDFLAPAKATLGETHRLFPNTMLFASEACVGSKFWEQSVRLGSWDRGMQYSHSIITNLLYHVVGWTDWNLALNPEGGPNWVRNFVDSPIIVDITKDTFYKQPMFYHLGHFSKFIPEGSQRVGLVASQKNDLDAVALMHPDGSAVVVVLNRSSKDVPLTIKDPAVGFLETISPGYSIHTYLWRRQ
Method in brief: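 Normal human glucocerebrosidase (0.2 nM final) was assayed with resorufin β-D-glucopyranoside (30 uM final) in 50mM citric acid/KH2PO4, 10mM sodium taurocholate, 0.01% tween-20, pH 5.9. Compounds were titrated; fluorescence (Ex 548, Em 600) read after 20 min at RT.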
In the case of `O=C(CSc1nc2ccccc2[nH]1)NC(=O)NCc1ccco1`, the Potency is reported as inactive: > 76.9 µM.
In the case of `CCN1CCCC1CNC(=O)c1c(O)c2c([nH]c1=O)CCCC2` (stereo unspecified), the Potency is reported as inactive: > 76.9 µM.
In the case of `CCC(Sc1ccc2nnc(-c3ccc(OC)c(OC)c3)n2n1)C(=O)O` (stereo unspecified), the Potency is reported as inactive: > 76.9 µM.
With `Cn1c(=O)[nH]c(=O)c2c1nc(N1CCCCCC1)n2CCCSc1nc2ccccc2o1` the Potency was inactive: > 76.9 µM.
In the case of `Cc1ccc(N2C(=O)C3C(C2=O)C(C(=O)c2ccc(Cl)cc2)N2CCCC32)cc1` (stereo unspecified), the Potency is reported as inactive: > 76.9 µM.
`CCCCNC(=O)c1ccccc1C(=O)NCCCC` was tested, and the Potency was inactive: > 76.9 µM.
For `O=C(NC1CCCCC1)N(CCN1CCOCC1)Cc1cc2cc3c(cc2[nH]c1=O)OCCO3`, the Potency was inactive: > 76.9 µM.
With `O=C(Nc1nc2c(ccc3ccccc32)s1)c1ccco1` the Potency was inactive: > 76.9 µM.
`CCOC(=O)c1c(C2COc3ccccc3O2)csc1N` (stereo unspecified) was tested, and the Potency was inactive: > 76.9 µM.
In the case of `CCOCCn1c(SCC)nc2c1c(=O)[nH]c(=O)n2C`, the Potency is reported as inactive: > 76.9 µM.
For `CCOC(=O)c1[nH]c2ccccc2c1NC(=O)c1cc(OC)c(OC)c(OC)c1`, the Potency was “inactive”.
`O=C(Cn1cnc2c(nnn2Cc2ccc(Cl)cc2)c1=O)OCc1ccccc1` was tested, and the Potency was inactive: > 76.9 µM.
For `O=C(Nc1nncs1)C1COc2ccccc2O1` (stereo unspecified), the Potency was inactive: > 76.9 µM.
For `COc1ccc(C(=O)Nc2nnc(Cc3cccs3)s2)cc1OC`, the Potency was inactive: > 76.9 µM.
For `COc1cccc(C2N(c3ccc(Cl)c(Cl)c3)C(=O)C3CCCN32)c1OC` (stereo unspecified), the Potency was inactive: > 76.9 µM.
In the case of `Cc1ccc(-n2c(=O)cc(N3CCC(C)CC3)[nH]c2=O)cc1`, the Potency is reported as inactive: > 76.9 µM.
With `Cc1cc(=O)[nH]c(SCC(=O)Nc2ccc(Br)cn2)n1` the Potency was inactive: > 76.9 µM.
For `CCN(CC)S(=O)(=O)c1ccc(C(=O)Nc2ncn(Cc3ccccc3)n2)cc1`, the Potency was inactive: > 76.9 µM.
In the case of `CCSC1=C(C#N)C(c2ccc(OC)c(OC)c2)CC(=O)N1` (stereo unspecified), the Potency is reported as inactive: > 76.9 µM.
For `N#CCCN(C(=O)CSc1ccc2c(c1)OCCO2)c1ccccc1`, the Potency was inactive: > 76.9 µM.
In the case of `Cc1cccc(NC(=O)CN2C(=O)COc3ccc(Cl)cc32)c1`, the Potency is reported as inactive: > 76.9 µM.
`CC(C)Cn1c(Br)nc2c1c(=O)n(CCC#N)c(=O)n2C` was tested, and the Potency was inactive: > 76.9 µM.
`Cc1ccc(C)c(S(=O)(=O)N2CC(=O)Nc3ccccc32)c1` was tested, and the Potency was inactive: > 76.9 µM.
In the case of `Cc1cc(C)n2nc(C(=O)OCC(=O)Nc3ccc4c(c3)OCO4)nc2n1`, the Potency is reported as inactive: > 76.9 µM.
In the case of `O=C(c1noc2c1CCCCC2)N1CCOCC1`, the Potency is reported as inactive: > 76.9 µM.
For `CN(CCCNC(=O)COc1cc(=O)n(C)c2ccccc12)Cc1ccccc1`, the Potency was inactive: > 76.9 µM.
For `OC1(c2ccc(F)cc2)CCN(Cc2nnnn2Cc2cccs2)CC1`, the Potency was inactive: > 76.9 µM.
With `O=C(O)c1cccc(-n2cccc2/C=N/O)c1` the Potency was inactive: > 76.9 µM.
In the case of `CCc1nn(CC(=O)NCCN2CCN(C)CC2)c(=O)c2cc3occc3n12`, the Potency is reported as inactive: > 76.9 µM.
`CCN1CCN(C(=O)CN(c2cc(OC)ccc2OC)S(C)(=O)=O)CC1` was tested, and the Potency was inactive: > 76.9 µM.
With `O=C1CCCc2nc(N3CCN(C(c4ccccc4)c4ccccc4)CC3)ncc21` the Potency was inactive: > 76.9 µM.
In the case of `O=S(=O)(c1cccc(S(=O)(=O)N2CCC(N3CCCCC3)CC2)c1)N1CCOCC1`, the Potency is reported as inactive: > 76.9 µM.
For `Cc1ccc(C)n1-c1ccc2c(c1)COC2=O`, the Potency was inactive: > 76.9 µM.
For `O=C(OCC(=O)N1CCN(C(=O)c2ccco2)CC1)c1sc2ccccc2c1Cl`, the Potency was inactive: > 76.9 µM.
With `Cc1cccc(CS(=O)(=O)Cc2ccc(C(=O)NCCN3CCCCC3C)o2)c1` (stereo unspecified) the Potency was inactive: > 76.9 µM.
For `Clc1cccc(Cl)c1-c1nnc2ccc(N3CCOCC3)nn12`, the Potency was inactive: > 76.9 µM.
With `CC1CC(C)CN(C(=O)Cn2c(=O)n(CCCCC(=O)NC3CCCC3)c(=O)c3ccccc32)C1` (stereo unspecified) the Potency was inactive: > 76.9 µM.
For `Cn1c(=O)c2c(n(Cc3ccccc3)c1=O)NC(=O)C2CC(=O)N1CCc2ccccc2C1` (stereo unspecified), the Potency was inactive: > 76.9 µM.
`Cc1cc2nc(SCC(=O)Nc3nonc3C)c3c(c2cc1C)CCCC3` was tested, and the Potency was inactive: > 76.9 µM.
`COc1ccc(NC(=O)c2ccco2)cc1NC(=O)c1cccc(OC(C)C)c1` was tested, and the Potency was active: 9.83 µM.
With `CCOC(=O)CC(=O)Nc1nnc(C(C)C)s1` the Potency was inactive: > 76.9 µM.
For `CS(=O)(=O)N(Cc1nnc(-c2cccs2)o1)c1ccc(Cl)cc1F`, the Potency was inactive: > 76.9 µM.
With `CCOc1ccc(S(=O)(=O)n2nnc3ccccc32)cc1C` the Potency was inactive: > 76.9 µM.
For `COc1cccc(NC(=O)c2ncn[nH]2)c1`, the Potency was inactive: > 76.9 µM.
For `COc1ccc(OC)c(N(CC(=O)Nc2cccnc2)S(=O)(=O)c2ccc(OC)c(OC)c2)c1`, the Potency was inactive: > 76.9 µM.
In the case of `CCOC(=O)N1CCC(NC(=O)C2CCCN(c3nc4ccccc4o3)C2)CC1` (stereo unspecified), the Potency is reported as inactive: > 76.9 µM.
With `COc1cc2nc(=S)n3[nH]c(CCn4nc(C)cc4C)nc3c2cc1OC` the Potency was inactive: > 76.9 µM.
For `Cc1ccccc1Nc1nnc(SCC(=O)NCc2ccco2)s1`, the Potency was “inactive”.
In the case of `COc1cccc(CC(=O)Nn2c(C)nc3ccccc3c2=O)c1`, the Potency is reported as inactive: > 76.9 µM.
In the case of `Cc1noc(C)c1COC(=O)c1cc(F)c(F)cc1Cl`, the Potency is reported as inactive: > 76.9 µM.
`COCCn1c(=S)[nH]c2cc(C(=O)NCCCN3CCOCC3)ccc2c1=O` was tested, and the Potency was inactive: > 76.9 µM.
`O=C(Cn1cnc2c(cnn2-c2ccc(Cl)cc2)c1=O)NCC1CCCO1` (stereo unspecified) was tested, and the Potency was inactive: > 76.9 µM.
With `CCN1CCN(C(=O)CN(c2ccc(C)cc2)S(C)(=O)=O)CC1` the Potency was inactive: > 76.9 µM.
For `CCCCC(=O)NCCNc1nc2c(c(=O)n(C)c(=O)n2C)n1Cc1ccc(F)cc1`, the Potency was inactive: > 76.9 µM.
With `N#Cc1cc2c(=O)n3ccccc3nc2n(CCN2CCOCC2)c1=O` the Potency was inactive: > 76.9 µM.
For `CC(C)c1nc2oc3c(=O)[nH]cnc3c2c2c1CCC2`, the Potency was inactive: > 76.9 µM.
`O=C(NCc1cccnc1)c1cc(-c2ccccc2)on1` was tested, and the Potency was inactive: > 76.9 µM.
With `COc1ccc(NC(=O)NCCN2CCc3ccccc3C2)cc1` the Potency was inactive: > 76.9 µM.
For `CCOC(=O)c1cc2cc(F)ccc2nc1C`, the Potency was inactive: > 76.9 µM.
`CC(C)(C)n1ncc2c(=O)n(CC(=O)NCCc3ccccc3)cnc21` was tested, and the Potency was inactive: > 76.9 µM.
For `Cn1c(SCC(=O)c2ccccc2F)nnc1C1CC1`, the Potency was inactive: > 76.9 µM.
With `CC(C)Cn1c(N)c(C(=O)COC(=O)C2=COCCO2)c(=O)n(C)c1=O` the Potency was inactive: > 76.9 µM.
With `COC(=O)c1cccc(NC(=O)CN2CCOCC2)c1` the Potency was inactive: > 76.9 µM.
In the case of `CCOC(=O)COc1cc(=O)n(CC)c2ccccc12`, the Potency is reported as inactive: > 76.9 µM.
`COCCn1nnnc1C(c1ccccc1Cl)N1CCN(c2ccccc2OC)CC1` (stereo unspecified) was tested, and the Potency was inactive: > 76.9 µM.
`CCNC(=O)CC1C(=O)N(c2ccc(C)cc2)C(=O)N1Cc1ccccn1` (stereo unspecified) was tested, and the Potency was inactive: > 76.9 µM.
For `CCOc1ccc(NC(=O)CSc2nnc(-c3ccco3)n2C)cc1`, the Potency was inactive: > 76.9 µM.
With `CCOc1ccc(NC(=O)CCNS(=O)(=O)c2ccc3c(c2)c(=O)n(C)c(=O)n3C)cc1` the Potency was inactive: > 76.9 µM.
In the case of `Cc1nccn1CCc1nc(N)nc(N)n1`, the Potency is reported as inactive: > 76.9 µM.
For `CCn1cc(C(=O)NCc2cccnc2)c2cc(OC)c(OC)cc2c1=O`, the Potency was inactive: > 76.9 µM.
`c1ccc(Cc2nn3c(Cn4nnc5ccccc54)nnc3s2)cc1` was tested, and the Potency was inactive: > 76.9 µM.
`CCn1nc(C(=O)NC2=NCCS2)c2ccccc2c1=O` was tested, and the Potency was inactive: > 76.9 µM.
`CCOC(=O)c1cc2c(n(-c3ccccc3)c1=O)CC(C)(C)CC2=O` was tested, and the Potency was inactive: > 76.9 µM.
For `CCN(CC)CCN1C(=O)C(=O)/C(=C(/O)c2c(C)[nH]c(C(=O)OC)c2C)C1c1cccnc1` (stereo unspecified), the Potency was inactive: > 76.9 µM.
With `O=C(OCC(=O)c1cccs1)c1ccc(NC(=O)c2ccco2)cc1` the Potency was inactive: > 76.9 µM.
`O=C(OCC(=O)N(C1CCCCC1)C1CCCCC1)c1ccncc1` was tested, and the Potency was “inactive”.
For `FC(F)(F)c1ccc(N2CCOCC2)c(Nc2nc3ccccc3n3cnnc23)c1`, the Potency was “inactive”.
For `O=C(NC1CCCCNC1=O)c1ccc(Cl)cc1` (stereo unspecified), the Potency was inactive: > 76.9 µM.
`Cc1cc(NC(=O)CSc2ccc(-c3nc4cc(C)c(C)cc4[nH]3)cn2)no1` was tested, and the Potency was inactive: > 76.9 µM.
With `Cc1ccc(NC(=O)c2cccc(Cl)c2)nc1` the Potency was inactive: > 76.9 µM.
For `COc1ccc(OC)c(C(=O)CSc2nc3ncccc3[nH]2)c1`, the Potency was inactive: > 76.9 µM.
For `COc1cc(C(=O)NC2CC3CCCC(C2)N3C2CC2)cc(OC)c1OC` (stereo unspecified), the Potency was inactive: > 76.9 µM.
In the case of `Nc1nc(NC(=O)c2cccnc2)nn1-c1ccccc1`, the Potency is reported as inactive: > 76.9 µM.
In the case of `COc1ccc(C)cc1NC(=O)CN1CCN(S(=O)(=O)c2ccc(C(C)C)cc2)CC1`, the Potency is reported as “inactive”.
In the case of `O=C(Nc1nncs1)C1(c2ccccc2)CCCC1`, the Potency is reported as inactive: > 76.9 µM.
`NC(=O)c1ccccc1NS(=O)(=O)c1cccs1` was tested, and the Potency was inactive: > 76.9 µM.
In the case of `COc1ccc(-c2nn(-c3ccccc3)cc2C(=O)Nc2nc(CC(C)=O)ns2)cc1`, the Potency is reported as inactive: > 76.9 µM.
With `C=CCN1C(=O)CSc2ccc(C(=O)OCC)cc21` the Potency was inactive: > 76.9 µM.
`CCCCN(C)C(=O)c1oc2ccc(S(=O)(=O)N3CCCCCC3)cc2c1C` was tested, and the Potency was inactive: > 76.9 µM.
`CCCn1c(SCC(=O)Nc2nc3c(s2)CCCC3)nc2c1c(=O)n(C)c(=O)n2C` was tested, and the Potency was inactive: > 76.9 µM.
With `CCOC(=O)c1nnn(-c2nonc2N)c1CN(C)C1CCCCC1` the Potency was “inactive”.
